Laboratory results from PubChem BioAssay AID588453 (National Center for Advancing Translational Sciences (NCATS), 2011).
Among all 390,000 compounds or so, about 4,000 (1%) were called active. This list was built around the results that the source calls inconclusive (neither active nor inactive); the mix of calls is not that of the screen. Calls follow the shape of the dose curve; as a rule, active = well fitted inhibition curve with a large enough effect; inconclusive = small, poorly fitted or top-dose-only effect; inactive = no such curve, though single readings can be large or run the other way. Potencies beside an inconclusive call are fits to weak or partial responses and may not hold up.
Also: nearly all actives have a fitted effect of over 65% in size.
Potency is read from the fitted curve at half-maximal effect; tags tell the direction and shape of the fitted curve.

The molecules below were run against Thioredoxin reductase 1, cytoplasmic (Rattus norvegicus) (UniProt O89049) (assay: qHTS Assay for Inhibitors of Mammalian Selenoprotein Thioredoxin Reductase 1 (TrxR1): qHTS). Details: recombinant rTrxR1, NADPH fluorescence consumption, selenite substrate; series mostly up to 114 µM.
UniProt O89049, sequence (O89049 whole entry, looked up): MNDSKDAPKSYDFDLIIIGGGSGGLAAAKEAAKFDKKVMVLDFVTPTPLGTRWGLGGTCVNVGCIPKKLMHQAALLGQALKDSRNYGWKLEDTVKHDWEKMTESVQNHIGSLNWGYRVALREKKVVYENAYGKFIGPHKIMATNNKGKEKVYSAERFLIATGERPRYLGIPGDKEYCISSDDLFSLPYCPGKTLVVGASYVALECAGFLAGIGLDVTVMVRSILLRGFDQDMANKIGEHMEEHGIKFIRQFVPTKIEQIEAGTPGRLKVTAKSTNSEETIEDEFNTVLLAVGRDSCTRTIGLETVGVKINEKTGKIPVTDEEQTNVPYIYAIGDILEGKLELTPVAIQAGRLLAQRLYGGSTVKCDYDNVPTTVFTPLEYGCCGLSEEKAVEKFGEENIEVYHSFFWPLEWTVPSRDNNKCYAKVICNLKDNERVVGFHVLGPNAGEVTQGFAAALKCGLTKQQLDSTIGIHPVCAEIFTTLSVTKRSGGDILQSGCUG
Summary of the method: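 Rat TrxR1 (90 nM in the dispensed reagent) was pre-reduced with 400 uM NADPH for 5 min at room temperature, then incubated with compound for 15 min. After 400 uM selenite was added, NADPH fluorescence (Ex 340/Em 450 nm) was followed for 8 min.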
In the case of `COc1ccc(C[C@H]2NC[C@H](O)[C@H]2OC(C)=O)cc1`, the Potency is reported as active: 39.8 µM.
With `CN(CCOc1ccc(C=C2C(=O)NC(=O)NC2=O)cc1)c1ccccn1` the Potency was inconclusive: 44.7 µM [inhibitor, partial curve, poor fit].
`Cc1cc(N2CCOCC2)nc2ccc(NC(=O)CCC(=O)N3CCC4(CC3)OCCO4)cc12` was tested, and the Potency was inconclusive: 70.8 µM [inhibitor, single point].
In the case of `COc1cc(/C=C2\C(=O)NC(=O)N(c3ccc(C)cc3)C2=O)cc(OC)c1O`, the Potency is reported as inconclusive: 14.1 µM [inhibitor, full curve].
`COc1ccc2c(c1)/C(=C/c1cnc[nH]1)C(=O)N2` was tested, and the Potency was “inactive”.
In the case of `COc1ccccc1OCC(=O)N1CCCC(N(C)Cc2ccccc2)C1` (stereo unspecified), the Potency is reported as inconclusive: 44.7 µM [inhibitor, partial curve, poor fit].
For `O=C(c1csc2c1CCCCC2)N1CCC2(CC1)OCCO2`, the Potency was “inactive”.
`CCC(COC(=O)c1cc(OC)c(OC)c(OC)c1)(c1ccccc1)N(C)C` (stereo unspecified) was tested, and the Potency was “inactive”.
For `CN1Cc2c(c(C#N)c(N)n(C)c2=S)CC1(C)C`, the Potency was inconclusive: 56.2 µM [inhibitor, partial curve, poor fit].
In the case of `O=C1NC(=O)N(Cc2ccccc2)C(=O)/C1=C\N1CCCc2ccccc21`, the Potency is reported as inconclusive: 56.2 µM [inhibitor, partial curve, poor fit].
For `CCN(CC)P(=O)(Oc1ccccc1)Oc1ccccc1`, the Potency was “inactive”.
For `NCCc1c[nH]c2ccc(O)cc12`, the Potency was inconclusive: 0.15 µM [inhibitor, full curve, poor fit].
For `Cc1cc(/C=C2\C(=O)NC(=O)N(c3ccc(Cl)cc3)C2=O)c(C)n1C`, the Potency was inconclusive: 35.5 µM [inhibitor, partial curve].
In the case of `COc1ccc2c3c1OC1C(=O)CC[C@@]4(O)[C@@H](C2)N(C)CC[C@]314` (stereo partly specified), the Potency is reported as inconclusive: 15.8 µM [inhibitor, full curve].
With `O=C1NC(=O)C(=Cc2ccccc2OCCOc2ccc([N+](=O)[O-])cc2)C(=O)N1` the Potency was inconclusive: 25.1 µM [inhibitor, partial curve, poor fit].
For `CCOC(=O)c1c(/N=C/C2C(=O)NC(=S)NC2=O)sc2c1CCC2`, the Potency was active: 17.8 µM.
With `COc1ccc(/C=C2/C(=O)N(Cc3ccco3)C(=O)N(C(C)C)C2=O)cc1` the Potency was inconclusive: 50.1 µM [inhibitor, partial curve].
In the case of `COc1ccccc1-n1c(O)c(C=NCCN2CCNCC2)c(=O)[nH]c1=O`, the Potency is reported as inconclusive: 44.7 µM [inhibitor, partial curve].
In the case of `O=C1NC(=O)N(Cc2ccccc2Cl)C(=O)/C1=C/N1CCOCC1`, the Potency is reported as inconclusive: 11.2 µM [inhibitor, partial curve, poor fit].
In the case of `Cn1c(NN=O)nc2ccccc21`, the Potency is reported as inconclusive: 70.8 µM [inhibitor, partial curve].
In the case of `COc1cc(OC)cc(C(=O)Nc2ccc(Cl)cc2C(=O)c2ccccc2Cl)c1`, the Potency is reported as “inactive”.
For `CN1CCN(c2ccc([N+](=O)[O-])c(N3CCCCC3)c2)CC1`, the Potency was “inactive”.
For `CN1CCN(C(=O)C(=O)c2cn(CC(=O)N3CCCC3)c3ccccc23)CC1`, the Potency was inconclusive: 79.4 µM [inhibitor, single point].
With `CC[C@H]1CN2CCc3cc(OC)c(OC)cc3[C@@H]2C[C@@H]1C[C@H]1NCCc2cc(OC)c(OC)cc21` the Potency was “inactive”.
In the case of `C=CCN1C(=O)/C(=C/c2ccc(N3CCOCC3)o2)C(=O)NC1=S`, the Potency is reported as inconclusive: 70.8 µM [inhibitor, partial curve].
With `COC(=O)C(Cc1ccc(N(CCCl)CCCl)cc1)N=Cc1ccccc1O` (stereo unspecified) the Potency was inconclusive: 28.2 µM [inhibitor, partial curve, poor fit].
For `COC(=O)Cn1cc(C=C2C(=O)NC(=O)NC2=O)c2ccccc21`, the Potency was inconclusive: 79.4 µM [inhibitor, partial curve, poor fit].
With `COc1cccc(N=Nc2c(O)[nH]c(=S)[nH]c2=O)c1` the Potency was inconclusive: 39.8 µM [inhibitor, partial curve, poor fit].
With `Cc1ccc2c(c1)=NC(=O)/C(=C/c1c(O)[nH]c(=O)[nH]c1=O)C=2` the Potency was inconclusive: 8.91 µM [inhibitor, full curve].
With `Cc1cccc(-n2c(/C=C/c3ccc([N+](=O)[O-])o3)nc3ccccc3c2=O)c1` the Potency was inconclusive: 56.2 µM [inhibitor, partial curve, poor fit].
`C=C1C(=O)O[C@H]2C[C@@H](C)[C@@H]3C=CC(=O)[C@@]3(C)C[C@H]12` was tested, and the Potency was “inactive”.
`O=C(Cc1ccccc1)OCn1nnc2ccccc2c1=O` was tested, and the Potency was “inactive”.
`S=C(Nc1ccc(Br)cc1Cl)N1CCC2(CC1)OCCO2` was tested, and the Potency was inconclusive: 31.6 µM [inhibitor, single point].
In the case of `CCOC(=O)CNC(=O)CNC(=O)C(Cc1ccc(N(CCCl)CCCl)cc1)NC(C)=O` (stereo unspecified), the Potency is reported as inconclusive: 39.8 µM [inhibitor, partial curve].
`O=C(c1ccoc1)N1CCCC(N2CCN(c3cccc(C(F)(F)F)c3)CC2)C1` (stereo unspecified) was tested, and the Potency was inconclusive: 89.1 µM [inhibitor, partial curve, poor fit].
`N#CC(C#N)=Cc1ccc(C=C(C#N)C#N)cc1` was tested, and the Potency was active: 7.94 µM.
`CN1C(=O)/C(=C/c2ccc(N3CCCCCC3)o2)C(=O)NC1=S` was tested, and the Potency was inconclusive: 39.8 µM [inhibitor, partial curve, poor fit].
For `O=C(Cc1ccccc1)NC(Oc1ccccc1Cl)C(Cl)(Cl)Cl` (stereo unspecified), the Potency was inconclusive: 39.8 µM [inhibitor, single point].
`CCc1ccc(N2C(=O)NC(=O)C(Cc3ccc(OC)cc3OC)C2=O)cc1` (stereo unspecified) was tested, and the Potency was inconclusive: 22.4 µM [inhibitor, single point].
In the case of `CCOC(=O)COc1ccc(/C=C2\C(=O)NC(=S)N(c3ccc(OC)cc3)C2=O)cc1OC`, the Potency is reported as active: 3.16 µM.
In the case of `C[C@]12C=CC(=O)C=C1CC[C@@H]1C2=CC[C@]2(C)[C@@H](C(=O)CN3CCN(c4cc(N5CCCC5)nc(N5CCCC5)n4)CC3)CC[C@@H]12`, the Potency is reported as inconclusive: 0.0053 µM [inhibitor, full curve, poor fit].
In the case of `COc1cccc(C(C#N)N2CCCCC2)c1O` (stereo unspecified), the Potency is reported as inconclusive: 44.7 µM [inhibitor, partial curve].
In the case of `O=c1ccc2cc(OC3O[C@H](CO)[C@@H](O)[C@H](O)[C@H]3O)c(O)cc2o1` (stereo partly specified), the Potency is reported as inconclusive: 100 µM [inhibitor, single point].
With `Cc1ccccc1NC(=O)CCl` the Potency was inconclusive: 63.1 µM [inhibitor, partial curve, poor fit].
With `CCOc1ccc(N2C(=O)NC(=O)/C(=C/c3cnc(SC)nc3)C2=O)cc1` the Potency was active: 3.98 µM.
In the case of `CCCCCCn1c(=O)c(C(=O)Nc2cnccn2)c(O)c2ccccc21`, the Potency is reported as “inactive”.
`CCOC(=O)c1ccc(N=C(CC)c2c(O)n(C)c(=O)n(C)c2=O)cc1` was tested, and the Potency was “inactive”.
`C=CCN1C[C@@H](C)N(C(c2ccc(C(=O)N(CC)CC)cc2)c2cccc(OC)c2)C[C@@H]1C` (stereo partly specified) was tested, and the Potency was “inactive”.
`CN1CCc2nc(SC(C(=O)O)c3ccccc3)c(C#N)c(-c3cccs3)c2C1` (stereo unspecified) was tested, and the Potency was inconclusive: 39.8 µM [inhibitor, partial curve].
`CCN1C(=O)C(=Cc2cc(C)n(C3CC3)c2C)C(=O)N(CC)C1=S` was tested, and the Potency was inconclusive: 89.1 µM [inhibitor, single point].
For `O=c1ccc2cc(O[C@@H]3O[C@@H](CO)[C@H](O)[C@@H](O)[C@@H]3O)c(O)cc2o1`, the Potency was inconclusive: 31.6 µM [inhibitor, full curve, poor fit].
`Cc1cc(C=C2C(=O)NC(=S)NC2=O)c(C)n1-c1ccc2c(c1)OCO2` was tested, and the Potency was inconclusive: 56.2 µM [inhibitor, partial curve].
`Cc1ccccc1OCCN=Cc1c(O)n(C)c(=O)n(C)c1=O` was tested, and the Potency was “inactive”.
`COc1cc(OC)c(/C=C2/C(=O)Nc3ccccc32)c(OC)c1` was tested, and the Potency was inconclusive: 79.4 µM [inhibitor, partial curve, poor fit].
With `CCCC(=O)c1cc(CP(=O)(OCC)OCC)oc1C` the Potency was inconclusive: 56.2 µM [inhibitor, partial curve].
`C[N+](C)(C)CC1CCCC(C[N+](C)(C)C)C1=O` (stereo unspecified) was tested, and the Potency was inconclusive: 22.4 µM [inhibitor, partial curve, poor fit].
`Cc1ccc(S(=O)(=O)Oc2ccccc2C=C2C(=O)N(C)C(=O)N(C)C2=O)cc1` was tested, and the Potency was active: 50.1 µM.
For `CC(=NCc1cccnc1)c1c(O)n(C2CCCCC2)c(=O)[nH]c1=O`, the Potency was “inactive”.
In the case of `CCc1c(C)nc(N)nc1N1N=C1SC`, the Potency is reported as “inactive”.
With `COc1cc([N+](=O)[O-])c2nc(C)ccc2c1[N+](=O)[O-]` the Potency was inconclusive: 79.4 µM [inhibitor, single point].
With `COc1ccc(C2SCC(=O)Nc3c2c(=O)[nH]n3C2CCCCCC2)cc1` (stereo unspecified) the Potency was inconclusive: 89.1 µM [inhibitor, partial curve, poor fit].
For `C=C1C(=O)O[C@@H]2C[C@@H](C)[C@@H]3C=CC(=O)[C@@]3(C)[C@@H](OC(=O)CC(=O)O[C@H]3[C@@H]4C(=C)C(=O)O[C@@H]4C[C@@H](C)[C@@H]4C=CC(=O)[C@]43C)[C@H]12`, the Potency was inconclusive: 11.2 µM [inhibitor, full curve, poor fit].
In the case of `O=C1C(=O)c2ccccc2-c2ccccc21`, the Potency is reported as active: 10 µM.
For `Oc1cc2c(cc1CN1CCN(c3ccccc3F)CC1)OCO2`, the Potency was inconclusive: 17.8 µM [inhibitor, partial curve].
With `Cc1c(C=C2C(=O)NC(=O)NC2=O)c(=O)n(-c2ccccc2)n1C` the Potency was “inactive”.
`Cc1ccc(N2C(=O)NC(=O)/C(=C\c3cnc(-c4ccccc4)nc3)C2=O)cc1` was tested, and the Potency was active: 3.55 µM.
